Measurements published in a collection of fitness landscapes (doi:10.1016/j.celrep.2020.107928).
Whole data set: some 81,000 sequences, median “one-hybrid fitness for binding parS DNA” near -0.17, cut for the highest 2% near 0.51. The list shows a part of the results.

B1: Caulobacter ParB omega fusion; a variant is named by its letters at X, in order, B8GW30 (parent)
chain: MESVVVGEPGMSEGRRGLGRGLSALLGEVDAAPAQAPGEQLGGSREAPIEILQRNPDQPRRTFREEDLEDLSNSIREKGVLQPILVRPSPDTAGEYQIVAGERAWRAAQRAGLKTVPIMVRELDDLAVLEIGIIENVQRADLNVLEEALSYKVLMEKFERTQENIAQTIGKSXSHVANXMRLLXLPDEVQSYLVSGELTAXHARAIAAAADPVALAKQIIEGGLSVRETEALARKAPNLSAGKSKGGRPPRVKDTDTQALESDLSSVLGLDVSIDHRGSTGTLTITYATLEQLDDLCNRLTRGI

Variants of: B1
Test: one-hybrid fitness for binding parS DNA (scaled: cognate 1, non-cognate 0); higher = stronger binding
Details: with parS DNA site
Method in brief: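 Caulobacter ParB libraries with four specificity codons randomised were screened by bacterial one-hybrid selection in the E. coli USO strain, using a HIS3 reporter whose site lies 19 bp from the promoter. Selection ran for 48 hours at 37°C on M9 lacking histidine, with 0.1 mM IPTG and 5 mM 3-AT. Plasmids were Illumina-sequenced before and after selection, three replicate libraries were pooled, and variants with under 10 reads were dropped. Fitness is the log change in each variant's read ratio to wild type, rescaled against the cognate and non-cognate sites.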

| Variant | one-hybrid fitness for binding parS DNA |
| --- | --- |
| QITP | ≤ 0.2 |
| GSNG | ≤ 0.2 |
| AHER | ≤ 0.2 |
| SRYS | ≤ 0.2 |
| CTTH | ≤ 0.2 |
| FVHR | ≤ 0.2 |
| MATG | ≤ 0.2 |
| IVAG | ≤ 0.2 |
| QCND | ≤ 0.2 |
| NEKT | ≤ 0.2 |
| LTDK | ≤ 0.2 |
| VIQR | ≤ 0.2 |
| DDPK | ≤ 0.2 |
| CGST | ≤ 0.2 |
| PGEH | ≤ 0.2 |
| QGKH | ≤ 0.2 |
| ISSE | ≤ 0.2 |
| IIYW | 0.392 |
| SITT | ≤ 0.2 |
| LTSE | ≤ 0.2 |
| HVGY | ≤ 0.2 |
| CHCS | ≤ 0.2 |
| CRMW | ≤ 0.2 |
| SAAQ | ≤ 0.2 |
| RSKI | ≤ 0.2 |

| Variant | one-hybrid fitness for binding parS DNA |
| --- | --- |
| SLEW | ≤ 0.2 |
| PLNV | ≤ 0.2 |
| AIIG | ≤ 0.2 |
| SGMY | ≤ 0.2 |
| FHTR | ≤ 0.2 |
| TYYQ | ≤ 0.2 |
| PLLT | ≤ 0.2 |
| MIPS | ≤ 0.2 |
| RLWP | 0.201 |
| QNPM | ≤ 0.2 |
| RMMN | 0.435 |
| RASC | 0.973 |
| VKNA | ≤ 0.2 |
| STHA | ≤ 0.2 |
| SMYG | ≤ 0.2 |
| YRSC | ≤ 0.2 |
| IPYR | ≤ 0.2 |
| VRVK | ≤ 0.2 |
| LRHL | ≤ 0.2 |
| EMTG | ≤ 0.2 |
| NRQS | ≤ 0.2 |
| SWKM | ≤ 0.2 |
| HTHR | ≤ 0.2 |
| QHMS | ≤ 0.2 |
| AQEF | ≤ 0.2 |

| Variant | one-hybrid fitness for binding parS DNA |
| --- | --- |
| PWRT | ≤ 0.2 |
| PVGI | ≤ 0.2 |
| ARLW | ≤ 0.2 |
| LLRN | ≤ 0.2 |
| FPTQ | ≤ 0.2 |
| PEPF | ≤ 0.2 |
| WLSC | ≤ 0.2 |
| EKAG | ≤ 0.2 |
| FNHD | ≤ 0.2 |
| LMPV | ≤ 0.2 |
| SSHI | ≤ 0.2 |
| GIIG | ≤ 0.2 |
| AFEC | ≤ 0.2 |
| YTAI | ≤ 0.2 |
| RNSA | 0.495 |
| AGHG | ≤ 0.2 |
| DLFV | ≤ 0.2 |
| RGIK | ≤ 0.2 |
| SIPI | ≤ 0.2 |
| CAAG | ≤ 0.2 |
| VNSG | ≤ 0.2 |
| LQAM | ≤ 0.2 |
| SKHW | ≤ 0.2 |
| NEYR | ≤ 0.2 |
| VKHS | ≤ 0.2 |

| Variant | one-hybrid fitness for binding parS DNA |
| --- | --- |
| ANAA | ≤ 0.2 |
| RCCT | 0.913 |
| TELK | ≤ 0.2 |
| DSGC | ≤ 0.2 |
| EITL | ≤ 0.2 |
| RLAL | ≤ 0.2 |
| DNQP | ≤ 0.2 |
| WQVR | ≤ 0.2 |
| PYTF | ≤ 0.2 |
| SAGC | ≤ 0.2 |
| TKLN | ≤ 0.2 |
| PAIE | ≤ 0.2 |
| GSQV | ≤ 0.2 |
| TYSL | ≤ 0.2 |
| AAQY | ≤ 0.2 |
| EISR | ≤ 0.2 |
| PYSR | ≤ 0.2 |
| AWGD | ≤ 0.2 |
| MRLR | ≤ 0.2 |
| NATR | ≤ 0.2 |
| CLVA | ≤ 0.2 |
| TCHG | ≤ 0.2 |
| AWID | 0.206 |
| RHYG | 0.95 |
| FLHK | ≤ 0.2 |

| Variant | one-hybrid fitness for binding parS DNA |
| --- | --- |
| AICG | ≤ 0.2 |
| SSNT | ≤ 0.2 |
| LMQD | ≤ 0.2 |
| VALN | ≤ 0.2 |
| WCKR | ≤ 0.2 |
| DTVH | ≤ 0.2 |
| PETL | ≤ 0.2 |
| MPTV | ≤ 0.2 |
| ARSC | ≤ 0.2 |
| PFCR | ≤ 0.2 |
| VHIC | ≤ 0.2 |
| GRCR | ≤ 0.2 |
| WYIC | ≤ 0.2 |
| TSNN | ≤ 0.2 |
| NMFL | ≤ 0.2 |
| LVRS | ≤ 0.2 |
| TSYK | ≤ 0.2 |
| QPRD | ≤ 0.2 |
| WSPS | ≤ 0.2 |
| FPRL | ≤ 0.2 |
| WHNC | ≤ 0.2 |
| SKMR | ≤ 0.2 |
| TLDV | ≤ 0.2 |
| TGDG | ≤ 0.2 |
| GNYG | ≤ 0.2 |

| Variant | one-hybrid fitness for binding parS DNA |
| --- | --- |
| YRYT | ≤ 0.2 |
| WMGS | ≤ 0.2 |
| TEEF | ≤ 0.2 |
| LGLS | ≤ 0.2 |
| YPSG | ≤ 0.2 |
| IVQS | ≤ 0.2 |
| QGLW | ≤ 0.2 |
| LPAM | ≤ 0.2 |
| GQMR | ≤ 0.2 |
| ANCT | ≤ 0.2 |
| KMRH | ≤ 0.2 |
| RIRD | ≤ 0.2 |
| RSYE | ≤ 0.2 |
| TTTS | ≤ 0.2 |
| DGSV | ≤ 0.2 |
| RHIR | ≤ 0.2 |
| TQCS | ≤ 0.2 |
| RGDE | ≤ 0.2 |
| QEPE | ≤ 0.2 |
| IWNF | ≤ 0.2 |
| RYNP | ≤ 0.2 |
| YSCA | ≤ 0.2 |
| TAHE | ≤ 0.2 |
| ENIF | ≤ 0.2 |
| WIRT | ≤ 0.2 |

| Variant | one-hybrid fitness for binding parS DNA |
| --- | --- |
| NPSY | ≤ 0.2 |
| GEAR | ≤ 0.2 |
| MRNV | ≤ 0.2 |
| VYHS | ≤ 0.2 |
| INIP | 0.249 |
| SATS | ≤ 0.2 |
| RSVI | ≤ 0.2 |
| INNS | ≤ 0.2 |
| YLYG | ≤ 0.2 |
| SCSP | ≤ 0.2 |
| QRQI | ≤ 0.2 |
| CLPS | ≤ 0.2 |
| TVMT | ≤ 0.2 |
| NNMI | ≤ 0.2 |
| LTIC | ≤ 0.2 |
| CTPG | ≤ 0.2 |
| HEKY | ≤ 0.2 |
| GVTL | ≤ 0.2 |
| KLLK | ≤ 0.2 |
| ESFR | ≤ 0.2 |
| RMQM | 0.351 |
| LISW | ≤ 0.2 |
| RVDT | 0.741 |
| HNYE | ≤ 0.2 |
| ARVD | ≤ 0.2 |

| Variant | one-hybrid fitness for binding parS DNA |
| --- | --- |
| NVGT | ≤ 0.2 |
| IEMT | ≤ 0.2 |
| EQTS | ≤ 0.2 |
| EMAR | ≤ 0.2 |
| QMCA | ≤ 0.2 |
| FSAR | ≤ 0.2 |
| IYKR | ≤ 0.2 |
| MISM | ≤ 0.2 |
| GFFV | ≤ 0.2 |
| GLPY | ≤ 0.2 |
| RELL | ≤ 0.2 |
| KPKT | ≤ 0.2 |
| DPSV | ≤ 0.2 |
| TVGG | ≤ 0.2 |
| WNVT | ≤ 0.2 |
| HFVG | ≤ 0.2 |
| QHMH | ≤ 0.2 |
| ECIS | ≤ 0.2 |
| PAWN | ≤ 0.2 |
| DPIR | ≤ 0.2 |
